Measured values reported in patent US20220125891A1.
The source holds more than one record for some entries. Only these are listed. There may be further records. The values listed for one entry appear to be repeats (runs, samples, wells or individuals); a mean can stand among them. Positions of bridges follow the written chain, without caps; N, C: chain ends. Non-standard residues stand in square brackets, D forms with d. NMeF = CN[C@@H](Cc1ccccc1)C(=O)O; bMeAla = not defined here; NMeA = CN[C@@H](C)C(=O)O

Target: Regnase-1 (analyte of the surface plasmon resonance competition assay, Example 26) (Homo sapiens (Human)) (UniProt Q5D1E8)
Assay: SPR, Regnase-1 alone on captured PP7+tag (control)

B1: PP7+tag (peptide)
peptide: [NMeA]NFNSAYYRAIWD[bMeAla]GGTGTGTGT[NMeF]PIT[NMeF]PI-OH
modifications: lactam N-13; reading uncertain
For B1, the competitiveness index was 0.93, 1.13, 0.99, 0.96 [lines of one column].
